Measured values from the supplement of paper PMC10126150.
Sequences with one replicate were seen in a single cluster, so their values are uncertain.

tested on: ATP; experiment: switch fluorescence ratio, 500 uM ATP over buffer (Cy3 cluster intensity, sum of 5 cycles each) (fold (ratio)); higher = stronger signal-on switching upon ATP binding; sequences stand for … in TCGTCGGCAGCGTCAGATGTGTATAAGAGACAGTTTTTTTTTTTTTTTTTTTTTTTTT…TC; details: aptamer strand: ATP DNA aptamer (quencher-CACCTGGGGGAGTATTGCGGAGGAAGG + anchor), 100 nM annealed; ATP concentration: 500 uM; one replicate
Procedure, shortened: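 Five buffer/ATP imaging cycles were run on Cy3-labelled switching-strand clusters on a modified Illumina MiSeq flow-cell, with NaOH stripping and re-annealing between cycles. In each cycle, clusters annealed to 100 nM quencher-labelled ATP aptamer were imaged in selection buffer, then after 15 min with 500 uM ATP at 22 °C. Per cluster, the fluorescence ratio is summed target-cycle over summed buffer-cycle Cy3 intensity, averaged per switch-domain sequence. Only clusters within 100-1000 RFU were kept.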
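Further: ATP exposure 15 min at 22 °C before imaging.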

Sequence | switch fluorescence ratio
CGAATGATGC | 1.02
CGAATTAGAT | 1.01
CGAATTCTAG | 0.965
CGACAATGGG | 0.97
CGACAGACTT | 1.08
CGACAGCGGG | 0.989
CGACATGCGG | 1.02
CGACATGGAT | 1.07
CGACATTTGG | 1
CGACCAAGGT | 1.15
CGACCAGTGA | 1.4
CGACCCTCGC | 1.18
CGACCCTTC | 1.13
CGACCTGTCG | 1.08
CGACGGTGA | 1.08
CGACGTAAGG | 1.33
CGACGTAGAG | 1.1
CGACGTGGTC | 1.12
CGACGTTGAT | 1.12
CGACTACGGA | 1.06
CGACTATGTT | 0.96
CGACTATTGC | 1.19
CGACTCAGTT | 1.06
CGACTCATCT | 1.09
CGACTCATTC | 2.68

Sequence | switch fluorescence ratio
CGACTCCCCA | 1.17
CGACTGAATA | 1.08
CGACTGGTAG | 0.96
CGACTTGATA | 1.07
CGACTTTCGC | 1.03
CGAGAAACGT | 1
CGAGAGGTTT | 0.972
CGAGAGTATC | 0.98
CGAGATGATG | 0.952
CGAGATGG | 1
CGAGATTCTT | 0.987
CGAGCACGCC | 1.06
CGAGCATGTG | 1.08
CGAGCTAACT | 1.46
CGAGCTAGCC | 1.01
CGAGCTTCGA | 0.986
CGAGCTTGTA | 0.987
CGAGGACCAC | 1.02
CGAGGACGGT | 0.96
CGAGGACTCT | 0.983
CGAGGATCGT | 0.98
CGAGGATGCT | 0.974
CGAGGATGGC | 1.01
CGAGGGCGGT | 1.07
CGAGGGCTCG | 0.997

Sequence | switch fluorescence ratio
CGAGGGGAGA | 1.02
CGAGGGTTTC | 1.05
CGAGGTACTT | 1.06
CGAGGTCGTC | 0.966
CGAGGTGAGG | 1.01
CGAGGTTAGT | 1.03
CGAGTAAAAA | 1.09
CGAGTAAATC | 1.14
CGAGTCATCG | 0.978
CGAGTGACAA | 1.11
CGAGTTGTAA | 0.991
CGATAAGATC | 1.07
CGATAGTACT | 1.07
CGATATGGAA | 0.999
CGATATTCAG | 1.03
CGATCATGT | 0.969
CGATCCGGTA | 1.02
CGATCGAGCG | 0.955
CGATCGTGGC | 1.07
CGATGAAG | 1
CGATGAGTGT | 0.981
CGATGATGCG | 1.02
CGATGCCCCC | 1.21
CGATGCGTTT | 1.04
CGATGGCAGA | 1.04

Sequence | switch fluorescence ratio
CGATGGGCAC | 1.05
CGATGGGCGG | 0.962
CGATGGTAA | 0.99
CGATGGTAAT | 1.14
CGATGTATAG | 1.04
CGATGTCGCC | 1
CGATGTGACG | 1.03
CGATTAGGCG | 1.03
CGATTCACCC | 1.02
CGATTCCAGT | 1.01
CGATTGAAGG | 1.03
CGATTGGATG | 1.02
CGATTTCCCA | 1.01
CGATTTTATA | 1
CGCAAAACGT | 3.88
CGCAACCATT | 1.13
CGCAATGTC | 1.26
CGCAATGTCG | 1.04
CGCACGTTCA | 0.999
CGCACTAGGC | 1.27
CGCACTCCAA | 3.3
CGCAGCCGTT | 1.03
CGCAGCGTAA | 2.01
CGCAGGGACT | 1.48
CGCAGTTGTA | 1

Sequence | switch fluorescence ratio
CGCAGTTTAA | 1.14
CGCATAGCAG | 0.99
CGCATCCTC | 2.46
CGCATCTTCG | 1.09
CGCATGTTAA | 1.1
CGCATTATTT | 1.25
CGCCAACTAG | 1.17
CGCCAAGAGG | 1.15
CGCCAGAGTA | 0.983
CGCCAGCGGC | 1.03
CGCCAGTCAC | 1.18
CGCCATACAG | 1.46
CGCCATAGAG | 1.03
CGCCATTAGC | 1.05
CGCCCAAGCG | 1.01
CGCCCAGTTA | 1.09
CGCCCATTTA | 0.97
CGCCCTAAC | 1.45
CGCCCTCGCG | 1.02
CGCCCTTGGT | 1.14
CGCCGCGGCC | 1.11
CGCCGCGGGC | 2.75
CGCCGGCGCC | 1.03
CGCCGTGCTA | 0.947
CGCCGTGGCG | 1.02

Sequence | switch fluorescence ratio
CGCCTAAGTG | 1.01
CGCCTACAGG | 1.27
CGCCTACTCA | 1.25
CGCCTCAGTA | 1.09
CGCCTCATGT | 1.02
CGCCTGCATC | 1.89
CGCCTGTACA | 1.02
CGCCTGTGTC | 1.01
CGCCTTTCCG | 1.18
CGCGAAGGCC | 1.01
CGCGAATACT | 2.73
CGCGAATCTT | 0.992
CGCGACATGG | 0.984
CGCGACATTA | 0.978
CGCGACGGAC | 1.4
CGCGACGTTC | 1.11
CGCGAGCTTG | 1.02
CGCGAGTGTC | 1.07
CGCGCATGCT | 1.2
CGCGCCCCGG | 1.75
CGCGGAAAGC | 1.1
CGCGGATGGC | 1.07
CGCGGCGCCA | 1.03
CGCGGCTACT | 1.75
CGCGGGAACC | 1.02

Sequence | switch fluorescence ratio
CGCGGGATTG | 1.03
CGCGGGTGAC | 0.985
CGCGGGTGCT | 0.996
CGCGTATGCA | 0.974
CGCGTCGTGC | 1.03
CGCGTGAACC | 1.04
CGCGTGAGGA | 0.973
CGCGTGCGCC | 1.01
CGCGTGCTG | 0.992
CGCGTGGTGC | 1.04
CGCGTTAAGG | 1.04
CGCTAATAAT | 1.58
CGCTACCCCG | 1.16
CGCTAGCGCG | 0.983
CGCTATATAT | 1.29
CGCTATCATG | 1.04
CGCTCAACAC | 2.3
CGCTCAGAGT | 1.05
CGCTCATGTT | 1.01
CGCTCGGCTC | 1.09
CGCTCGGGGC | 1.02
CGCTCTAGCC | 1.08
CGCTCTGGCA | 1.02
CGCTCTGGCC | 1.02
CGCTGAACAG | 1.05

Sequence | switch fluorescence ratio
CGCTGATATC | 1.73
CGCTGATCGT | 1.03
CGCTGATTTT | 0.981
CGCTGCGACT | 1.05
CGCTGGCATC | 1.08
CGCTGGCATT | 1.12
CGCTGGGATG | 1.02
CGCTGGGGG | 0.994
CGCTTAATAG | 2.14
CGCTTGCTGA | 0.958
CGCTTTAAAC | 1.41
CGCTTTCCTC | 1.66
CGGAAACCCC | 1.4
CGGAAAGATT | 1.02
CGGAAAGGCT | 1.03
CGGAAATCAA | 1.04
CGGAAGAAGG | 1.03
CGGAAGAGAA | 1
CGGAAGGTAC | 1.21
CGGAAGGTT | 0.992
CGGAATGGG | 1
CGGAATTCAA | 0.99
CGGAATTTAG | 1.01
CGGACAAGC | 1.19
CGGACACAAA | 1.31
